Reference: a collection of fitness landscapes (doi:10.1016/j.celrep.2020.107928)
Over roughly 81,000 sequences, “one-hybrid fitness for binding parS DNA” has its median near -0.17; the highest 2% begin near 0.51. This is one part of the list.

B1: Caulobacter ParB omega fusion; a variant is named by its letters at X, in order, B8GW30 (parent)
chain: MESVVVGEPGMSEGRRGLGRGLSALLGEVDAAPAQAPGEQLGGSREAPIEILQRNPDQPRRTFREEDLEDLSNSIREKGVLQPILVRPSPDTAGEYQIVAGERAWRAAQRAGLKTVPIMVRELDDLAVLEIGIIENVQRADLNVLEEALSYKVLMEKFERTQENIAQTIGKSXSHVANXMRLLXLPDEVQSYLVSGELTAXHARAIAAAADPVALAKQIIEGGLSVRETEALARKAPNLSAGKSKGGRPPRVKDTDTQALESDLSSVLGLDVSIDHRGSTGTLTITYATLEQLDDLCNRLTRGI

Variants of: B1
Experiment: one-hybrid fitness for binding parS DNA (scaled: cognate 1, non-cognate 0); higher = stronger binding
Settings: with parS DNA site
Outline: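 Caulobacter ParB libraries with four specificity codons randomised were screened by bacterial one-hybrid selection in the E. coli USO strain, using a HIS3 reporter whose site lies 19 bp from the promoter. Selection ran for 48 hours at 37°C on M9 lacking histidine, with 0.1 mM IPTG and 5 mM 3-AT. Plasmids were Illumina-sequenced before and after selection, three replicate libraries were pooled, and variants with under 10 reads were dropped. Fitness is the log change in each variant's read ratio to wild type, rescaled against the cognate and non-cognate sites.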

Row | Variant | one-hybrid fitness for binding parS DNA
1 | RTWI | ≤ 0.2
2 | HVDM | ≤ 0.2
3 | EMAM | ≤ 0.2
4 | SPRS | ≤ 0.2
5 | QHTA | ≤ 0.2
6 | MGQN | ≤ 0.2
7 | NCRE | ≤ 0.2
8 | MRVQ | ≤ 0.2
9 | KCGT | ≤ 0.2
10 | TLTI | ≤ 0.2
11 | YPDM | ≤ 0.2
12 | NMCN | ≤ 0.2
13 | QVYV | ≤ 0.2
14 | DTQT | ≤ 0.2
15 | TPNN | ≤ 0.2
16 | CVYR | ≤ 0.2
17 | HPQM | ≤ 0.2
18 | EVIR | ≤ 0.2
19 | QKFI | ≤ 0.2
20 | NSRP | ≤ 0.2
21 | RPLF | ≤ 0.2
22 | RHAL | ≤ 0.2
23 | TSTM | ≤ 0.2
24 | KYAE | ≤ 0.2
25 | VENR | ≤ 0.2

Row | Variant | one-hybrid fitness for binding parS DNA
26 | PIRN | ≤ 0.2
27 | NGAF | ≤ 0.2
28 | YHMT | ≤ 0.2
29 | PDIL | ≤ 0.2
30 | SYTV | ≤ 0.2
31 | LPMC | ≤ 0.2
32 | MLDS | ≤ 0.2
33 | RTLI | ≤ 0.2
34 | SGKA | ≤ 0.2
35 | LMWS | ≤ 0.2
36 | LCMI | ≤ 0.2
37 | QDHT | ≤ 0.2
38 | HRRE | ≤ 0.2
39 | MQKM | ≤ 0.2
40 | RHIE | ≤ 0.2
41 | RGFY | ≤ 0.2
42 | LGDP | ≤ 0.2
43 | IEMG | ≤ 0.2
44 | KSTC | ≤ 0.2
45 | QLYH | ≤ 0.2
46 | KCYS | ≤ 0.2
47 | NTMR | ≤ 0.2
48 | PVYK | ≤ 0.2
49 | VLYL | ≤ 0.2
50 | HCER | ≤ 0.2

Row | Variant | one-hybrid fitness for binding parS DNA
51 | MLPI | ≤ 0.2
52 | ARLQ | ≤ 0.2
53 | RTFN | 0.436
54 | CGRR | ≤ 0.2
55 | DTVC | ≤ 0.2
56 | RNWT | 0.535
57 | YRWR | ≤ 0.2
58 | CHNT | ≤ 0.2
59 | YMTI | ≤ 0.2
60 | PDLN | ≤ 0.2
61 | RVAE | ≤ 0.2
62 | PIYS | ≤ 0.2
63 | NICS | ≤ 0.2
64 | PVLR | ≤ 0.2
65 | QTYV | ≤ 0.2
66 | AESI | ≤ 0.2
67 | PSFM | ≤ 0.2
68 | HSYG | ≤ 0.2
69 | VWTW | ≤ 0.2
70 | VTIR | ≤ 0.2
71 | RAFN | 0.426
72 | LCTE | ≤ 0.2
73 | ASRR | ≤ 0.2
74 | RFNW | 0.25
75 | VAQA | ≤ 0.2

Row | Variant | one-hybrid fitness for binding parS DNA
76 | AAHG | ≤ 0.2
77 | GLDY | ≤ 0.2
78 | KALK | ≤ 0.2
79 | WQLV | ≤ 0.2
80 | RYYM | 0.296
81 | ALIN | ≤ 0.2
82 | YYCY | ≤ 0.2
83 | PQAQ | ≤ 0.2
84 | MDRR | ≤ 0.2
85 | MGRR | ≤ 0.2
86 | RFKP | ≤ 0.2
87 | QRTM | ≤ 0.2
88 | LQEG | ≤ 0.2
89 | KVAG | ≤ 0.2
90 | QDQA | ≤ 0.2
91 | YLDC | ≤ 0.2
92 | SWLL | ≤ 0.2
93 | PFGL | ≤ 0.2
94 | RGYF | ≤ 0.2
95 | RYWF | 0.258
96 | NVSW | ≤ 0.2
97 | RYNW | 0.208
98 | TEHM | ≤ 0.2
99 | EQLR | ≤ 0.2
100 | PYLE | ≤ 0.2

Row | Variant | one-hybrid fitness for binding parS DNA
101 | KTIA | ≤ 0.2
102 | GLHF | ≤ 0.2
103 | LPQT | ≤ 0.2
104 | GRPF | ≤ 0.2
105 | MVIR | ≤ 0.2
106 | RTIA | 0.542
107 | DVRW | ≤ 0.2
108 | PYWC | ≤ 0.2
109 | DFST | ≤ 0.2
110 | FRHG | ≤ 0.2
111 | TARN | ≤ 0.2
112 | ASEK | ≤ 0.2
113 | QHFL | ≤ 0.2
114 | SYNS | ≤ 0.2
115 | HEKH | ≤ 0.2
116 | CKNG | ≤ 0.2
117 | YINY | ≤ 0.2
118 | QWLC | ≤ 0.2
119 | QAIE | ≤ 0.2
120 | HIGN | ≤ 0.2
121 | VVNY | ≤ 0.2
122 | SNWV | ≤ 0.2
123 | EYAT | ≤ 0.2
124 | PTKG | ≤ 0.2
125 | LLKV | ≤ 0.2

Row | Variant | one-hybrid fitness for binding parS DNA
126 | QHTS | ≤ 0.2
127 | LCTF | ≤ 0.2
128 | TTGP | ≤ 0.2
129 | QEIR | ≤ 0.2
130 | AITG | ≤ 0.2
131 | EHAM | ≤ 0.2
132 | VHLT | ≤ 0.2
133 | LMNT | ≤ 0.2
134 | TLWI | ≤ 0.2
135 | DYRV | ≤ 0.2
136 | HHYG | ≤ 0.2
137 | HMWA | ≤ 0.2
138 | GRWC | ≤ 0.2
139 | EARA | ≤ 0.2
140 | VAMK | ≤ 0.2
141 | CMTR | ≤ 0.2
142 | GEAD | ≤ 0.2
143 | RIDA | 0.55
144 | RDEC | ≤ 0.2
145 | ARLK | ≤ 0.2
146 | HSYT | ≤ 0.2
147 | QLAP | ≤ 0.2
148 | RRCS | 0.67
149 | QYAN | ≤ 0.2
150 | IYDG | ≤ 0.2

Row | Variant | one-hybrid fitness for binding parS DNA
151 | RKLA | 0.547
152 | APSP | ≤ 0.2
153 | KVVD | ≤ 0.2
154 | YNAG | ≤ 0.2
155 | KCNG | ≤ 0.2
156 | DHTD | ≤ 0.2
157 | ACNG | ≤ 0.2
158 | DDQC | ≤ 0.2
159 | RNEF | ≤ 0.2
160 | RTFM | 0.334
161 | CCAC | ≤ 0.2
162 | YRHS | 0.228
163 | ADQT | ≤ 0.2
164 | GCND | ≤ 0.2
165 | RKQI | ≤ 0.2
166 | MKGT | ≤ 0.2
167 | DRTC | ≤ 0.2
168 | ATLV | ≤ 0.2
169 | TNLV | ≤ 0.2
170 | MNFG | ≤ 0.2
171 | VARY | ≤ 0.2
172 | RIDV | ≤ 0.2
173 | TSIT | ≤ 0.2
174 | EEKC | ≤ 0.2
175 | WTKH | ≤ 0.2

Row | Variant | one-hybrid fitness for binding parS DNA
176 | PALY | ≤ 0.2
177 | RITG | 0.997
178 | NTGV | ≤ 0.2
179 | KRQY | ≤ 0.2
180 | SADP | ≤ 0.2
181 | MAAN | ≤ 0.2
182 | GDAA | ≤ 0.2
183 | KHVT | ≤ 0.2
184 | HSLY | ≤ 0.2
185 | RKYA | 0.579
186 | VPTS | ≤ 0.2
187 | PENV | ≤ 0.2
188 | ITLA | ≤ 0.2
189 | SMRI | ≤ 0.2
190 | YTPN | ≤ 0.2
191 | THGW | ≤ 0.2
192 | NEVL | ≤ 0.2
193 | FADG | ≤ 0.2
194 | KTWR | ≤ 0.2
195 | STVK | ≤ 0.2
